Measurements from PubChem BioAssay AID1768 (National Center for Advancing Translational Sciences (NCATS), 2009).
Hit rate of the full screen: of about 270,000 compounds, about 620 (0.23%) were called active. Inconclusive means that the source gave no clear call. Such entries were picked first, then a sample of the others. Calls come from the whole dose curve; as a rule, active = well fitted inhibition curve with a large enough effect in the polarisation, with a control signal flat (not every such curve was filed as active); inconclusive = small, poorly fitted or top-dose-only effect, or effect the other way, or a change in a side signal; inactive = no such curve, though single readings can be large or run the other way; the % refers to the polarisation. Potencies of inconclusive entries are doubtful fits and often do not repeat. “Side channel” marks fits to a control or component signal instead of the main read-out.

Each compound was assayed against Menin (Homo sapiens) (UniProt O00255) (assay: qHTS Assay for Inhibitors Targeting the Menin-MLL Interaction in MLL Related Leukemias: Competition With Texas Red Labeled MLL-derived Mutant Peptide). Conditions: fluorescence polarization; series mostly up to 61.6 µM.
Potency is the fitted concentration of half-maximal effect; tags give direction and shape of the fitted curve or compound fluorescence and quenching.

UniProt O00255, sequence (O00255 whole entry, looked up): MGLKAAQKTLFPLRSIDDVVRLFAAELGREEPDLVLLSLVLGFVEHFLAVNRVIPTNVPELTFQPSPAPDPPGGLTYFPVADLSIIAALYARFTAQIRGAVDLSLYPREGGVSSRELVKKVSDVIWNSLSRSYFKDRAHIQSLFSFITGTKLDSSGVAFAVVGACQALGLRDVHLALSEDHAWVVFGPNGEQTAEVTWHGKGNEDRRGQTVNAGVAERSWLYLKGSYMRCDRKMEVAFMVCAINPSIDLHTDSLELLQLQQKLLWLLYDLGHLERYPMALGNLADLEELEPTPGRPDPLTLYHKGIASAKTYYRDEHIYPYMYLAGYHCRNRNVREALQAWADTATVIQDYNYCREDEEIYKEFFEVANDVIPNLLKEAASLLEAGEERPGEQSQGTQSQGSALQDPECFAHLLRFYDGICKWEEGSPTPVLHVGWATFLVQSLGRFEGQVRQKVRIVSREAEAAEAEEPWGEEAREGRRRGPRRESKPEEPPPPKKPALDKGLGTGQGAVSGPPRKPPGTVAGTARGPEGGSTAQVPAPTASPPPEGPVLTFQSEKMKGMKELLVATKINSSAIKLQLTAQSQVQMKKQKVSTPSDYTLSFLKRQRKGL

Potency, inconclusive:
O=C1C(Nc2ccccc2)=C(NS(=O)(=O)c2ccccc2)C(=O)c2ccccc21 20 µM [quencher, side channel, single point]
Cn1c(SCc2ccccc2)nnc1-c1ccc(O)cc1 7.08 µM [quencher, side channel, single point]
Oc1c(Cl)cc(Cl)cc1/C=C/c1ccc2cccc(O)c2n1 14.1 µM [quencher, side channel, partial curve]
N#Cc1c(N)nc2c(c1-c1ccncc1)CCCC2 0.708 µM [fluorescent, side channel, partial curve, poor fit]
O=C1C2CC=CCC2C(=O)N1c1ccc(NCCc2ccc(O)cc2)c([N+](=O)[O-])c1 (stereo not drawn) 28.2 µM [quencher, side channel, single point]
COc1ccc(-c2ccnc3[nH]n(-c4ccccc4)c(=O)c23)cc1 28.2 µM [quencher, side channel, single point]
CCCn1c(=O)c(C(=O)Nc2cccc(C)c2)c(O)c2ccccc21 28.2 µM [quencher, side channel, partial curve]
COc1ccccc1C(=O)Nc1c2c(nn1-c1cccc(C)c1C)CS(=O)(=O)C2 39.8 µM [inhibitor, single point]
Cc1ccc(O)c(CNc2cnc3ccccc3c2)c1 10 µM [quencher, side channel, partial curve]
S=C1NC[C@H](Cc2ccccc2)N1CCCCC1CCCCC1 10 µM [fluorescent, side channel, partial curve, poor fit]
Cc1ccc(C)c(N2C(=N)S/C(=C\c3ccc(-c4ccccc4C(=O)O)o3)C2=O)c1 39.8 µM [quencher, single point]
CN(C)Cc1ccccc1-c1ccc2ncnc(NC3CCNCC3)c2c1 39.8 µM [inhibitor, single point]
COc1cc(NC(=O)CSc2nc3[nH]ncc3c(=O)n2-c2ccc(Cl)cc2)cc(OC)c1 10 µM [quencher, side channel, partial curve]
CCCC(=O)NC(=S)Nc1nc(-c2ccc(OC)cc2)cs1 11.2 µM [quencher, side channel, partial curve]
O=C(Nc1cnccn1)C1c2ccccc2Oc2ccccc21 14.1 µM [inhibitor, partial curve]
CCC(=O)N1CCN(c2cc(C)ccc2C)CC1 25.1 µM [inhibitor, single point]
COc1cc(NC(=O)CCN2CCN(C/C=C/c3ccccc3)CC2)cc(OC)c1 17.8 µM [fluorescent, side channel, partial curve]
COc1ccc(CN2CCNC(=O)C2CC(=O)NCCCC2CCCC2)c(C)c1C (stereo not drawn) 15.8 µM [fluorescent, side channel, partial curve]
S=C(NCc1ccc2[nH]c3c(c2c1)CCCC3)Nc1ccccc1Cl 10 µM [quencher, side channel, partial curve]
Cc1ccc(S(=O)(=O)N(CC(=O)NCc2ccco2)C2CCCCC2)cc1 39.8 µM [inhibitor, partial curve, poor fit]
COc1ccc(Oc2cn[nH]c2-c2ccc(O)cc2O)cc1 25.1 µM [quencher, side channel, single point]
O=c1cc(-c2ccccc2)oc2c(O)c(O)ccc12 28.2 µM [quencher, side channel, single point]
O=C1C(CCCNC(=S)NCc2ccccc2)NC(=S)N1Cc1ccccc1 (stereo not drawn) 22.4 µM [quencher, side channel, partial curve]
COc1ccc(C2C3=C(CC(C)(C)CC3=O)Oc3ncn(CC(C)C)c(=N)c32)cc1 (stereo not drawn) 39.8 µM [inhibitor, single point]
CCN(CC)CCOC(=O)C1(C2CCCCC2)CCCCC1 14.1 µM [fluorescent, side channel, partial curve]
COc1cc(NC(=O)c2ccc3c(c2)C(=O)N(CCC(C)C)C3=O)c(C(=O)O)cc1OC 14.1 µM [quencher, side channel, partial curve]
COc1cc2c(C#N)c(N3CCN(c4ccccc4OC)CC3)nc(N)c2c(N)n1 10 µM [quencher, side channel, partial curve]
CC(C)C(=O)Nc1c2c(nc3ccccc13)N(C)CC2 4.47 µM [inhibitor, full curve, poor fit]
Cc1ccc2c(CN(C)Cc3ccc(Cl)cc3)cc(=O)oc2c1 14.1 µM [fluorescent, side channel, partial curve]
COc1ccc(Nc2nc(-c3cccc([N+](=O)[O-])c3)nc3ccccc23)c(OC)c1 2.51 µM [quencher, side channel, full curve]
Cc1cccc(OCC(=O)Nc2nc3ccc([N+](=O)[O-])cc3s2)c1C 25.1 µM [quencher, side channel, partial curve]
O=C(Nc1ccc2ccccc2c1)c1cccnc1 25.1 µM [quencher, side channel, partial curve]
O=C(Nc1nc(-c2ccncc2)cs1)c1ccco1 17.8 µM [quencher, side channel, partial curve]
COc1ccc(-n2cc(-c3ccccc3)c3c(NCCOCCO)ncnc32)cc1 8.91 µM [inhibitor, full curve]
COc1ccc(S(=O)(=O)NCCc2c[nH]c3ccccc23)cc1OC 2.51 µM [inhibitor, full curve]
O=C(CN1CCC(C(=O)c2ccc3c(c2)OCCO3)CC1)NCc1ccccc1 35.5 µM [fluorescent, side channel, partial curve]
C=C(C)COc1ccc2c(CC)cc(=O)oc2c1 7.94 µM [fluorescent, side channel, full curve, poor fit]
O=S(=O)(Nc1cccc2c1ccc1cccn12)c1cccs1 22.4 µM [quencher, side channel, single point]
CC(=O)Nc1ccc(Nc2ncnc3c2cnn3-c2ccccc2)cc1 39.8 µM [fluorescent, side channel, single point]
O=C1CNC(=S)N1C(CO)c1ccccc1 (stereo not drawn) 35.5 µM [quencher, side channel, single point]
Cc1noc(C)c1S(=O)(=O)N1CCN(c2ccc(Cl)cc2)CC1 22.4 µM [inhibitor, single point]
O=[N+]([O-])c1cccc2ccc(/C=C/c3ccc(Cl)cc3)nc12 2.24 µM [quencher, side channel, partial curve]
CC(=O)C1=C(C)NC(SCC(=O)c2ccc(Cl)cc2)=C(C#N)C1c1ccco1 (stereo not drawn) 25.1 µM [quencher, side channel, partial curve]
C/C(N)=C(/C#N)C(=O)COC(=O)CCSc1ccccc1Cl 25.1 µM [quencher, side channel, single point]
COc1ccc(CN2CCN(Cc3cn(C)nc3-c3ccccc3)CC2CCO)c(C)c1C (stereo not drawn) 2.82 µM [fluorescent, side channel, full curve]
O=Cc1c2[nH]c3ccccc3c2cc2[nH]c3ccccc3c12 14.1 µM [quencher, side channel, partial curve]
Cc1nn(C)cc1CN(C)C(=O)c1cc2nc(-c3ccco3)cc(C(F)(F)F)n2n1 39.8 µM [quencher, side channel, single point]
CN(C)c1ccc(/C=N\Nc2ccccn2)cc1 14.1 µM [quencher, side channel, partial curve]
Cc1cc(C)nc(NCCO)n1 39.8 µM [inhibitor, single point]
Cc1c(NC(=O)COC(=O)C(c2ccc(Cl)cc2)C(C)C)c(=O)n(-c2ccccc2)n1C (stereo not drawn) 7.08 µM [fluorescent, side channel, partial curve]
Cc1cc(C)cc(OCc2nnc(SCC(=O)OC3CCCCC3)o2)c1 3.16 µM [fluorescent, side channel, full curve]
O=C(CN1CCCCCC1)Nc1ccc(Oc2ccccc2)cc1 3.55 µM [fluorescent, side channel, full curve]
COc1ccc2nc(NC3=NC(c4ccccc4)CC(=O)N3)nc(C)c2c1 (stereo not drawn) 7.08 µM [fluorescent, side channel, partial curve, poor fit]

Potency, inactive:
CC/C(=N\Nc1ccccc1[N+](=O)[O-])c1ccc(O)cc1
CCCCCCCCCCCCCCCC(=O)OCC(O)C1OC(=O)C(O)=C1O (stereo not drawn)
CCCCOCCOCCOCc1cc2c(cc1CCC)OCO2
Cc1nc2ccc(S(=O)(=O)Nc3ccccc3C)cc2s1
COc1ccc(OC)c(-c2oc3ccccc3c(=O)c2O)c1
